# Measured values as given in publication PMC8725944, “Design and synthesis of chromone-nitrogen mustard derivatives and evaluation of anti-breast cancer activity” (Journal of Enzyme Inhibition and Medicinal Chemistry, 2021).
# Tested on: human normal breast cell line MCF-10A
# Test: cells
# Conditions: 72 h, read-out: IC50 MCF-10A
row,Structure (SMILES),IC50
1,Cc1ccc2occ(CO)c(=O)c2c1 [Compound 15],> 40 µM
2,COc1ccc2occ(CO)c(=O)c2c1 [Compound 16],> 40 µM
3,Cc1ccc2occ(CN)c(=O)c2c1 [Compound 19],> 40 µM
4,COc1ccc2occ(CN)c(=O)c2c1 [Compound 20],> 40 µM
